Test results taken from PubChem BioAssay AID2147 (National Center for Advancing Translational Sciences (NCATS), 2009).
Where “and” joins values, the source holds several entries; their conditions need not be identical. Equal values may be shown once. The whole screen tested about 230,000 compounds, of which about 3,600 (1.6%) were called active. Inconclusive results, whose numbers are uncertain, are shown with a selection of clear calls. Calls follow the shape of the dose curve; as a rule, active = well fitted inhibition curve with a large enough effect (not every such curve was filed as active); inconclusive = small, poorly fitted or top-dose-only effect, or another doubt; inactive = no such curve, though single readings can be large or run the other way. Potencies beside an inconclusive call are fits to weak or partial responses and may not hold up.

molecular target: Lysine-specific demethylase 4E (Homo sapiens) (UniProt B2RXH2); assay: qHTS Assay for Inhibitors of Human Jumonji Domain Containing 2E (JMJD2E); conditions: JMJD2E catalytic domain, FDH-coupled NADH fluorescence (FDH is formaldehyde dehydrogenase); series mostly up to 57.1 µM
UniProt B2RXH2, sequence (B2RXH2 whole entry, looked up, the tested form may be a part): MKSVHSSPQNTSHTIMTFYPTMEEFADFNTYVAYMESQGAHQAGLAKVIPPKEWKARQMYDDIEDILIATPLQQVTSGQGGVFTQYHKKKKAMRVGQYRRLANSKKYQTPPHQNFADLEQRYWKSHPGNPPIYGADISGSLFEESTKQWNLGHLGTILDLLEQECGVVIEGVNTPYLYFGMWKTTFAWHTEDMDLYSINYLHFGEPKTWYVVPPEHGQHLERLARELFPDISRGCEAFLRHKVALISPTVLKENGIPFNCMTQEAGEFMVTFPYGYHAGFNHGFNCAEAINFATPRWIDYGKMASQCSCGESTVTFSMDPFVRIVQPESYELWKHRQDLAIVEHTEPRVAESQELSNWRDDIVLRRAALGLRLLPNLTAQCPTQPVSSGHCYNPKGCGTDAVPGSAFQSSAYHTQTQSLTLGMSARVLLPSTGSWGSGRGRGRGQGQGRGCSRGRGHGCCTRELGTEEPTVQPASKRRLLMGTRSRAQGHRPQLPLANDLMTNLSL
Also: nearly all actives have a fitted effect of over 50% in size.
Potency is read from the fitted curve at half-maximal effect; tags tell the direction and shape of the fitted curve.

Row | SMILES | Potency
1 | COc1ccccc1S(=O)(=O)Nc1ccc(-c2nnc3n2CCCCC3)cc1 | inactive
2 | Cc1ccccc1Cn1c(-c2cncs2)nc2ccccc21 | inconclusive: 5.01 µM [inhibitor, full curve]
3 | CC1CC(C)CN(CCCNC(=O)c2cc3c(=O)[nH]c4ccccc4c3n2C)C1 (centres undefined) | inconclusive: 25.1 µM [inhibitor, partial curve]
4 | CCCC(c1nnnn1C(C)(C)CC)N(Cc1ccco1)Cc1cc2ccc(OC)cc2[nH]c1=O (centres undefined) | inconclusive: 39.8 µM [inhibitor, single point]
5 | Cc1ccc2[nH]c(=O)c(C3C(C#N)=C(N)Oc4c3ccc3cccnc43)cc2c1 (centres undefined) | inconclusive: 39.8 µM [inhibitor, single point]
6 | COCC(=O)Nc1nnc(-c2cccs2)s1 | inconclusive: 28.2 µM [inhibitor, partial curve]
7 | Cc1[nH]c2ccc(C(=O)O)cc2c1C | inconclusive: 35.5 µM [inhibitor, single point]
8 | Cc1cc2n(n1)C(c1sccc1C)Nc1c(C)cccc1-2 (centres undefined) | inconclusive: 25.1 µM [inhibitor, partial curve]
9 | CC1(CCl)N([O-])C2=C(CCCC2)[N+]1=O (centres undefined) | inconclusive: 25.1 µM [inhibitor, single point]
10 | CCCN(CCC)CCc1cccc2c1CC(=O)N2 | inactive and inconclusive: 31.6 µM [inhibitor, single point]
11 | COc1cc(/C=C/C(=O)OCC(=O)N2CC(=O)Nc3ccccc32)ccc1O | inconclusive: 31.6 µM [inhibitor, single point]
12 | Cc1cc(C)cc(NC(=O)Nc2ccc(N3CCCCC3)cc2)c1 | inactive
13 | Cc1c(N=C2C=C(Br)C(=O)C(Br)=C2)c(=O)n(-c2ccccc2)n1C | inactive
14 | Cc1cnc(CNc2nc(-c3ccc(N(C)C)cc3)nc3ccccc23)cn1 | inconclusive: 28.2 µM [inhibitor, single point]
15 | C=CCO/N=C/C1=C(O)C(C(=O)OC)C(C)(C)CC1=O (centres undefined) | inconclusive: 35.5 µM [inhibitor, single point]
16 | COc1cccc2[nH]c3c(N4CCCC(C)C4)ncnc3c12 (centres undefined) | inconclusive: 22.4 µM [inhibitor, partial curve]
17 | O=S(=O)(Nc1cccc2c1CCCC2)c1ccc(Cl)cc1 | inconclusive: 25.1 µM [inhibitor, single point]
18 | O=C(/C=C/c1ccco1)N(Cc1cccc(Br)c1)C1CCS(=O)(=O)C1 (centres undefined) | inactive
19 | Cc1ccc(C(=O)N/N=C/c2nc3ccccc3n2C)cc1 | inconclusive: 35.5 µM [inhibitor, single point]
20 | O=C(COC(=O)/C=C/c1cn(-c2ccccc2)nc1-c1ccc2c(c1)OCCO2)NC1CCS(=O)(=O)C1 (centres undefined) | inconclusive: 3.55 µM [inhibitor, partial curve]
21 | Cc1cc(NC(=O)CCN2C(=O)/C(=C\c3ccccc3Cl)SC2=S)no1 | inactive
22 | O=S(=O)(c1ccc(Cl)c(S(=O)(=O)N2CCCC2)c1)N1CCCC1 | inconclusive: 8.91 µM [inhibitor, single point]

Row | SMILES | Potency
23 | Cc1ccc(SCc2ccc(C(=O)Nc3ccccc3C(=O)NC(C)C)cc2)cc1 | inconclusive: 35.5 µM [inhibitor, single point]
24 | CCOC(=O)c1ccccc1NC(=O)CC(C)CC(=O)O (centres undefined) | inconclusive: 35.5 µM [inhibitor, single point]
25 | COc1ccc(C(=O)NN2C(=O)C3C4C=CC(O4)C3C2=O)cc1 (centres undefined) | inactive
26 | CCN(CC)CCNC(=O)Cc1c(C(=O)O)n(C)c2ccccc12 | inconclusive: 35.5 µM [inhibitor, single point]
27 | COc1ccc2cc(C3C(C#N)=C(N)OC(C)=C3C(C)=O)c(Cl)nc2c1 (centres undefined) | inconclusive: 31.6 µM [inhibitor, partial curve]
28 | CSCCC(NC(=O)c1ccc(Cl)cc1)C(=O)OCC(=O)c1ccc[nH]1 (centres undefined) | inactive
29 | CN(C(=O)c1ccccc1C(=O)OCC(=O)NC(=O)NC(C)(C)C)C1CCCCC1 | inactive
30 | Cc1ccc(-n2cccc2/C=C2/NC(=O)N(CC(=O)Nc3cccc(C)c3)C2=O)cc1 | inconclusive: 25.1 µM [inhibitor, single point]
31 | NC1=NN=C(N2N=C(c3ccccc3)CC2(O)C(F)(F)F)n2ncnc2C1 (centres undefined) | inconclusive: 28.2 µM [inhibitor, partial curve]
32 | CCOCCCNC(=O)c1cc(=O)n(Cc2cccc(C)c2)c2ccccc12 | inconclusive: 25.1 µM [inhibitor, single point]
33 | O=C(Nc1cccc(-c2csc(Nc3cccc(C(F)(F)F)c3)n2)c1)c1cc([N+](=O)[O-])cc(C(F)(F)F)c1 | inactive
34 | CN(C)c1nc(N)nc(CSc2n[nH]c(-c3ccccc3)n2)n1 | inactive
35 | COc1ccc(-c2cc(C(F)(F)F)nc(SCC(=O)NCCCN3CCOCC3)n2)cc1 | inconclusive: 31.6 µM [inhibitor, partial curve]
36 | CC(C)c1cc(N2CCC(=O)NC2=O)cc(C(=O)O)c1O | inconclusive: 31.6 µM [inhibitor, partial curve]
37 | CCSc1nnc(-c2ccncc2)n1Cc1ccccc1 | inconclusive: 39.8 µM [inhibitor, single point]
38 | Cc1cc(NCCCn2ccnc2)n2ncc(-c3ccccc3)c2n1 | inconclusive: 28.2 µM [inhibitor, partial curve]
39 | Cc1ccc(-n2c(-c3ccc(Br)cc3)c[n+]3c2CCc2ccc4cccnc4c2-3)cc1 | inconclusive: 28.2 µM [inhibitor, single point]
40 | CCC(=O)c1ccc(OCC(=O)c2ccc3c(c2)NC(=O)CO3)cc1 | inactive
41 | C(=N\Nc1nc(Nc2ccccc2)nc(N2CCCCC2)n1)/c1ccco1 | inactive
42 | Cc1cc2n(c(=O)c1C#N)CCCN2c1cccc(Cl)c1 | inconclusive: 31.6 µM [inhibitor, partial curve]
43 | CCN1CCN(CC(O)COc2ccc(C(C)=O)cc2)CC1 (centres undefined) | inactive
44 | CCOC(=O)c1oc2ccccc2c1NC(=O)c1ccccc1OC | inconclusive: 31.6 µM [inhibitor, single point]
